# Measurements from PubChem BioAssay AID596 (National Center for Advancing Translational Sciences (NCATS), 2007).
# Hit rate of the full screen: of about 71,000 compounds, about 1,400 (2%) were called active. The shares of active, inactive and inconclusive entries below differ from those in the screen. The call rests on the fitted dose curve; in most records, active means well fitted curve in the direction sought with a large enough effect; inconclusive means small, poorly fitted or top-dose-only effect; inactive means no such curve, though single readings can be large or run the other way. Potencies of inconclusive entries are doubtful fits and often do not repeat. More than one record can exist for a structure, and the calls need not agree.
# Target: Microtubule-associated protein tau (Homo sapiens) (UniProt P10636)
# Test: qHTS Assay for Tau Filament Binding;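 further: actives lower thioflavin S fluorescence by blocking filaments or displacing dye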
# Conditions: recombinant tau filaments, thioflavin S fluorescence, 15 h, filaments grown with octadecylsulfate alongside compound; series mostly up to 57.1 µM; activity change, negative = inhibition: at the top concentration
# Summary of the method: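 His-tagged recombinant human tau (exons 2, 3 and 10 included), 1 uM, was induced to fibrillize by 30 uM sodium octadecylsulfate with compound present. After 15 h at 37 C, thioflavine S fluorescence (ex 450, em 510 nm) was read.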
# On the % scale 0 is the no-effect control and ±100 the full control effect; potency means the concentration at half of the fitted maximal effect.
# Chain of UniProt P10636 (P10636 whole entry, looked up): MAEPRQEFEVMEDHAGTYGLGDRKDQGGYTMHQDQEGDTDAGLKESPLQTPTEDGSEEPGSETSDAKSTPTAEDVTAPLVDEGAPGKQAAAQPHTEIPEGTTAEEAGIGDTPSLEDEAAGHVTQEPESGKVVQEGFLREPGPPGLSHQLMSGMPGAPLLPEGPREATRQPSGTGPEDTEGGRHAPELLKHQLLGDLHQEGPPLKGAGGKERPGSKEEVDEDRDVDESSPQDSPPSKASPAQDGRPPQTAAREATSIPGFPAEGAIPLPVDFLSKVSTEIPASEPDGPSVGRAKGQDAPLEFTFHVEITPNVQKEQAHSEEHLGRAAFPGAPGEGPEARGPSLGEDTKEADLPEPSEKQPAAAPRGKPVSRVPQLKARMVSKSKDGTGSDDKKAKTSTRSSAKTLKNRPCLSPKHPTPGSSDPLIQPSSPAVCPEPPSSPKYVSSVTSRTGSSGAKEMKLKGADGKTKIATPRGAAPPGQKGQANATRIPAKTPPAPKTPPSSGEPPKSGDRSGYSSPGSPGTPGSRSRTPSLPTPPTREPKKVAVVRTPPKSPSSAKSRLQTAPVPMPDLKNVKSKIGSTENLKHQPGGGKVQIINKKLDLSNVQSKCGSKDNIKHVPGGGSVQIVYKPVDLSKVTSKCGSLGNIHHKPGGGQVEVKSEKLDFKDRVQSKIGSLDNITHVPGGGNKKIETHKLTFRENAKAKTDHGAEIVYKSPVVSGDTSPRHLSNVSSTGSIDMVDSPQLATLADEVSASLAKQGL
Structure (SMILES),Potency,"activity change, negative = inhibition"
Cc1c(C(=O)CN2CCOCC2)[nH]c2ccccc12,inconclusive: 20 µM [decreasing],–
CCCCOCCCn1c(-c2ccco2)nc2nc3ccccc3nc21,active: 2 µM,–
COc1ccc(N2CCN(C(c3cccs3)C(C)NS(=O)(=O)c3ccccc3)CC2)cc1 (configuration not stated),active: 15.8 µM,–
CCOC(=O)C1=C(C)N=c2s/c(=C3\C(=O)Nc4ccccc43)c(=O)n2C1c1ccc2c(c1)OCO2 (configuration not stated),inconclusive: 31.6 µM [decreasing],–
CC(=O)Nc1ccc2nc(-c3ccccn3)[nH]c2c1,–,inactive: -10.3%
CN1CCc2c(sc3c2c(=O)n(-c2ccccc2)c2nnc(SCc4ccc(Cl)cc4)n32)C1,active: 3.16 µM,–
CCOC(=O)Cc1cc(=O)n(-c2nc3ccccc3s2)[nH]1,inconclusive: 25.1 µM [decreasing],–
CNCCCC1c2ccccc2C=Cc2ccccc21,active: 5.01 µM,–
COC(=O)c1ccccc1NC(=O)c1ccccc1OC,–,inactive: 6.3%
Cc1[nH]c2ccccc2c1C(O)CN1CCN(c2cccc(C(F)(F)F)c2)CC1 (configuration not stated),inconclusive: 3.16 µM [decreasing],–
COc1cccc(Nc2ncc(C(=O)O)c3ccccc23)c1,inconclusive: 39.8 µM [decreasing],–
Cc1ccc(C(=O)CSC2=NC(N)=C(C#N)C3(CCCCC3)C2C(N)=O)cc1 (configuration not stated),active: 3.16 µM,–
COc1ccc(C(=O)N2CCC[C@@]3(CCN(c4ccccn4)C3)C2)cc1,–,inactive: 4%
Cn1cnc2c(NCc3ccccc3)nc(NCCO)nc21,inconclusive: 39.8 µM [decreasing],–
CN(C)c1ccc(NC(=O)Nc2cccc(Cl)c2)cc1,active: 5.01 µM,–
CC(=O)Nc1cccc(NC(=O)CSc2ncc(-c3ccc(Cl)cc3)n2Cc2ccco2)c1,–,inactive: 20.6%
CCC/C=C(\CCC)C(NP(=O)(c1ccccc1)c1ccccc1)c1ccc(C(F)(F)F)cc1 (configuration not stated),inconclusive: 12.6 µM [decreasing],–
CCc1nnc(NCC(=O)N2CCc3ccccc32)s1,inconclusive: 25.1 µM [decreasing],–
Cn1c(=O)[nH]c(=O)c2c1nc(N1CCCCCC1)n2CCCSc1nc2ccccc2o1,–,inactive: 4.7%
CCN=C(Nc1ccc2c(c1)OCO2)SC1CC(=O)N(c2ccccc2F)C1=O (configuration not stated),–,inactive: 168%
NCCCC(=O)N1c2ccccc2Sc2ccccc21,inconclusive: 39.8 µM [decreasing],–

Structure (SMILES),Potency,"activity change, negative = inhibition"
COc1ccc(-n2c(SCC(=O)c3c(N)n(C)c(=O)n(C)c3=O)nc3ccccc32)cc1,inconclusive: 31.6 µM [decreasing],–
CCCc1c(-c2ccc(O)cc2)nn(-c2ccc(O)cc2)c1-c1ccc(O)cc1,inconclusive: 39.8 µM [decreasing],–
Cc1cc(=O)oc2c1c(C)nn2-c1ccc(C(=O)OC(C)C)cc1,inconclusive: 39.8 µM [decreasing],–
COc1ccc(N2CCN(c3oc(COc4ccccc4)nc3C#N)CC2)cc1,inconclusive: 25.1 µM [decreasing],–
Cc1ccc(C2C(C#N)=C(N)SC(N)=C2C#N)cc1,–,inactive: 275%
CCCOc1ccc(N2C(=O)CC(N(O)c3ccccc3)C2=O)cc1 (configuration not stated),active: 25.1 µM,–
COc1ccc(NC(=O)/C=C\c2ccc(Cl)cc2)cc1,–,inactive: -11.8%
COc1cccc(Cn2c(=O)cnc3cnc(Nc4cccc(OC)c4)nc32)c1,inconclusive: 3.16 µM [decreasing],–
Ic1ccc2c(c1)N(c1ccccc1)c1cc(Nc3ccc4nc5ccc(I)cc5[n+](-c5ccccc5)c4c3)ccc1N2,active: 3.98 µM,–
CC1(C)Cc2c(sc3c2c(=N)n(Cc2ccco2)c(=O)n3Cc2ccc(F)cc2)CO1,–,inactive: 4.9%
Cc1ccsc1C(=O)OCC(=O)c1cc2ccccc2o1,inconclusive: 12.6 µM [decreasing],–
O=S(=O)(NCCN1CCCC1)c1cccc2cccnc12,inconclusive: 39.8 µM [decreasing],–
Cc1c(/N=C/c2ccco2)n(Cc2ccccc2)c2ccccc12,active: 1.58 µM,–
COCCCNCCOc1cc(C(C)C)ccc1C,inconclusive: 25.1 µM [decreasing],–
COc1ccccc1N1CCN(CCCCN2C(=O)c3ccccc3C2=O)CC1,inconclusive: 39.8 µM [decreasing],–
Cc1ccc2[nH]c(=O)c(CN(Cc3ccc4c(c3)OCO4)Cc3nnnn3Cc3ccco3)cc2c1,–,inactive: 35%
Clc1cccc(C=NC=Nc2cccc(Cl)c2)c1,inconclusive: 39.8 µM [decreasing],–
COC(=O)CCCCCNc1ccc(C(=O)OC)cc1N,inconclusive: 31.6 µM [decreasing],–
OCCN1CCN(c2ncnc3nc[nH]c23)CC1,active: 25.1 µM,–
CCCc1cc(C(N)=O)c(NC(=O)c2cc(C)on2)s1,active: 31.6 µM,–
CC1(COc2ccc(C[C@H]3SC(=O)NC3=O)cc2)CCCCC1,inconclusive: 39.8 µM [decreasing],–

Structure (SMILES),Potency,"activity change, negative = inhibition"
NC(=O)CSc1nc2scc(-c3ccco3)c2c(=O)n1-c1ccccc1,–,inactive: -1.7%
Cc1c(C(O)CN2CCN(Cc3ccc4c(c3)OCO4)CC2)c2ccccc2n1C (configuration not stated),–,inactive: -19.7%
Cc1n[nH]c(C)c1S(=O)(=O)N1CCc2ccccc21,inconclusive: 39.8 µM [decreasing],–
Cc1cccc(N2CCN(C(=O)c3ccc(NS(=O)(=O)c4c(C)noc4C)cc3)CC2)c1C,inconclusive: 20 µM [decreasing],–
NC(N)=NC(N)=Nc1cccc(Cl)c1,inconclusive: 39.8 µM [decreasing],–
O=C1c2ccccc2NC2CCCCC12 (configuration not stated),–,inactive: -4.9%
COc1cc(N)c(Cl)cc1C(=O)OCCCN1CCCCC1,inconclusive: 39.8 µM [decreasing],–
Cc1ccc(OCC(=O)Nc2ccc(N3CCOCC3)cc2)cc1,inconclusive: 31.6 µM [decreasing],–
COC(=O)C1CCN(c2nc3ccccc3nc2C(C#N)C(=O)OCC(C)C)CC1 (configuration not stated),active: 3.98 µM,–
CN(C)S(=O)(=O)c1cccc(C(=O)C2=C3SC=C(c4ccccc4)N3CC2)c1,inconclusive: 25.1 µM [decreasing],–
O=c1c(O)c(-c2cccc(O)c2)oc2ccccc12,inconclusive: 39.8 µM [decreasing],–
O=C1c2ccccc2C(=O)c2c1ccc(N1C(=O)c3ccccc3C1=O)c2-c1c(N2C(=O)c3ccccc3C2=O)ccc2c1C(=O)c1ccccc1C2=O,inconclusive: 0.631 µM [decreasing],–
CN(C)C(=O)C(CCN1CCC(O)(c2ccc(Cl)cc2)CC1)(c1ccccc1)c1ccccc1,inconclusive: 39.8 µM [decreasing],–
N#Cc1cccc(NC(=O)N2CCCC3(CCN(C(=O)c4ccncc4)CC3)C2)c1,–,inactive: 4.5%
CCc1cc(Br)ccc1N1C(=O)C2CC=CCC2C1=O (configuration not stated),–,inactive: 1% [at 11.4 µM]
C=C1C(CCl)(CCl)C2(Cl)C(Cl)C(Cl)C1(Cl)C2(Cl)Cl (configuration not stated),inconclusive: 39.8 µM [decreasing],–
COc1ccccc1N1CCN(CCN2C(=O)c3ccccc3C(C)(C)C2=O)CC1,inconclusive: 39.8 µM [decreasing],–
COc1cccc(Cn2c(=O)c(-c3cccs3)nc3cncnc32)c1,inconclusive: 3.16 µM [decreasing],–
O=S(=O)(Nc1ccc(N2CCCCC2)cc1)c1cccs1,inconclusive: 25.1 µM [decreasing],–
COc1ccc(-c2nc(-c3cccs3)c(-c3cccs3)[nH]2)cc1O,inconclusive: 25.1 µM [decreasing],–
CSc1ccccc1NC(=O)CCn1c(=O)sc2ccccc21,–,inactive: 7.6%

Structure (SMILES),Potency,"activity change, negative = inhibition"
CC1=NN(C(=O)c2ccncc2)C(=O)[C@@H]1N=Nc1ccc2ccccc2c1,active: 1.58 µM,–
S=C(c1ccc(-c2cccc(Cl)c2)o1)N1CCOCC1,active: 15.8 µM,–
CCOC(=O)C1CCN(C(=O)C2CC(=O)N(c3ccc(C)cc3)C2)CC1 (configuration not stated),–,inactive: -12.3%
CCCn1c(NCc2ccc(N(C)C)cc2)nc2ccccc21,inconclusive: 31.6 µM [decreasing],–
O=C(c1ccccc1)N1CCN(c2ccc(NCc3ccc4c(c3)OCO4)cc2)CC1,active: 31.6 µM,–
COc1ccc(C(O)P(=O)(OC2CCCCC2)c2ccc(N(C)C)cc2)cc1OC (configuration not stated),inconclusive: 20 µM [decreasing],–
c1ccc2c(NC3CC3)nc(-c3ccoc3)nc2c1,inconclusive: 10 µM [decreasing],–
COc1ccc2c(c1OC)C(=O)O[C@@H]2[C@H]1c2c(cc3c(c2OC)OCO3)CCN1C,inconclusive: 39.8 µM [decreasing],–
CC1CCN(c2nc3c(c(=O)n(C)c(=O)n3C)n2CCSc2nc3ccccc3o2)CC1,–,inactive: 15.7%
COc1ccc(C2=NOC(C(=O)Nc3ccc(C(C)=O)cc3)C2)cc1OC (configuration not stated),–,inactive: -11%
Cn1nnnc1Sc1ncnc2scc(-c3ccc(F)cc3)c12,inconclusive: 25.1 µM [decreasing],–
CN(C1CCCCC1)S(=O)(=O)Cc1ccccc1,inconclusive: 31.6 µM [decreasing],–
Cc1nc2cnc(N(C)C)nc2n(C[C@H]2CCCO2)c1=O,–,inactive: 5.1%
O=C(c1ccc(Cn2cc(Cl)cn2)cc1)N1CCN(c2ccccc2)CC1,inconclusive: 31.6 µM [decreasing],–
CCc1ccc2c(c1)N(C[C@H](C)CN(C)C)c1ccccc1S2,inconclusive: 3.16 µM [decreasing],–
O=S(=O)(Cc1ccccc1)N1CCc2ccccc21,inconclusive: 39.8 µM [decreasing],–
O=C(O)C1CCCCC1C(=O)Nc1ccccc1Nc1ccccc1 (configuration not stated),inconclusive: 31.6 µM [decreasing],–
Cc1cccnc1Nc1nc(-c2ccc(O)cc2O)cs1,inconclusive: 7.94 µM [decreasing],–
Cc1ccsc1C1CC(=O)NC2=C1C(=O)CC(C)(C)C2 (configuration not stated),–,inactive: 6.5%
